{
  "source": "paper PMC9911399",
  "about": "“Two distinct binding modes provide the RNA-binding protein RbFox with extraordinary sequence specificity”",
  "binders": {"B1": {"name": "UCAGUAA (DNA:RNA)", "RNA": "GGGAGACCGGAAUUCAGAUUGUCCUCAGUAAUUAAAUCCCGUCGUAGCCACCA", "DNA 1": "CAATCTGAATTCCGGTCTCCC", "DNA 2": "TGGTGGCTACGACGGGATT"}, "B2": {"name": "UGCGAGG (DNA:RNA)", "RNA": "B1 RNA with C26G, A27C, U29A, A30G, A31G", "DNA 1": "CAATCTGAATTCCGGTCTCCC", "DNA 2": "TGGTGGCTACGACGGGATT"}, "B3": {"name": "UCCAGUU (DNA:RNA)", "RNA": "B1 RNA with A27C, G28A, U29G, A30U, A31U", "DNA 1": "CAATCTGAATTCCGGTCTCCC", "DNA 2": "TGGTGGCTACGACGGGATT"}, "B4": {"name": "CGGGUAC (DNA:RNA)", "RNA": "B1 RNA with U25C, C26G, A27G, A31C", "DNA 1": "CAATCTGAATTCCGGTCTCCC", "DNA 2": "TGGTGGCTACGACGGGATT"}, "B5": {"name": "GGGGGGU (DNA:RNA)", "RNA": "B1 RNA with U25G, C26G, A27G, U29G, A30G, A31U", "DNA 1": "CAATCTGAATTCCGGTCTCCC", "DNA 2": "TGGTGGCTACGACGGGATT"}, "B6": {"name": "GGAUUAA (DNA:RNA)", "RNA": "B1 RNA with U25G, C26G, G28U", "DNA 1": "CAATCTGAATTCCGGTCTCCC", "DNA 2": "TGGTGGCTACGACGGGATT"}, "B7": {"name": "GGGCCAC (DNA:RNA)", "RNA": "B1 RNA with U25G, C26G, A27G, G28C, U29C, A31C", "DNA 1": "CAATCTGAATTCCGGTCTCCC", "DNA 2": "TGGTGGCTACGACGGGATT"}, "B8": {"name": "UAGAGAU (DNA:RNA)", "RNA": "B1 RNA with C26A, A27G, G28A, U29G, A31U", "DNA 1": "CAATCTGAATTCCGGTCTCCC", "DNA 2": "TGGTGGCTACGACGGGATT"}, "B9": {"name": "UGGGUUG (DNA:RNA)", "RNA": "B1 RNA with C26G, A27G, A30U, A31G", "DNA 1": "CAATCTGAATTCCGGTCTCCC", "DNA 2": "TGGTGGCTACGACGGGATT"}, "B10": {"name": "UCAGUUA (DNA:RNA)", "RNA": "B1 RNA with A30U", "DNA 1": "CAATCTGAATTCCGGTCTCCC", "DNA 2": "TGGTGGCTACGACGGGATT"}, "B11": {"name": "CUCAUUC (DNA:RNA)", "RNA": "B1 RNA with U25C, C26U, A27C, G28A, A30U, A31C", "DNA 1": "CAATCTGAATTCCGGTCTCCC", "DNA 2": "TGGTGGCTACGACGGGATT"}, "B12": {"name": "UUGUAAA (DNA:RNA)", "RNA": "B1 RNA with C26U, A27G, G28U, U29A", "DNA 1": "CAATCTGAATTCCGGTCTCCC", "DNA 2": "TGGTGGCTACGACGGGATT"}, "B13": {"name": "GCGAACA (DNA:RNA)", "RNA": "B1 RNA with U25G, A27G, G28A, U29A, A30C", "DNA 1": "CAATCTGAATTCCGGTCTCCC", "DNA 2": "TGGTGGCTACGACGGGATT"}, "B14": {"name": "CAGCGCU (DNA:RNA)", "RNA": "GGGAGACCGGAAUUCAGAUUGUCCCAGCGCUUUAAAUCCCGUCGUAGCCACCA", "DNA 1": "CAATCTGAATTCCGGTCTCCC", "DNA 2": "TGGTGGCTACGACGGGATT"}, "B15": {"name": "GGAGAAG (DNA:RNA)", "RNA": "B1 RNA with U25G, C26G, U29A, A31G", "DNA 1": "CAATCTGAATTCCGGTCTCCC", "DNA 2": "TGGTGGCTACGACGGGATT"}, "B16": {"name": "CUGGUCC (DNA:RNA)", "RNA": "B14 RNA with A26U, C28G, G29U, U31C", "DNA 1": "CAATCTGAATTCCGGTCTCCC", "DNA 2": "TGGTGGCTACGACGGGATT"}, "B17": {"name": "CUGCUAC (DNA:RNA)", "RNA": "B14 RNA with A26U, G29U, C30A, U31C", "DNA 1": "CAATCTGAATTCCGGTCTCCC", "DNA 2": "TGGTGGCTACGACGGGATT"}, "B18": {"name": "CGCUCAA (DNA:RNA)", "RNA": "B1 RNA with U25C, C26G, A27C, G28U, U29C", "DNA 1": "CAATCTGAATTCCGGTCTCCC", "DNA 2": "TGGTGGCTACGACGGGATT"}, "B19": {"name": "GAACGAG (DNA:RNA)", "RNA": "B14 RNA with C25G, G27A, C30A, U31G", "DNA 1": "CAATCTGAATTCCGGTCTCCC", "DNA 2": "TGGTGGCTACGACGGGATT"}, "B20": {"name": "CGGAGGC (DNA:RNA)", "RNA": "B14 RNA with A26G, C28A, C30G, U31C", "DNA 1": "CAATCTGAATTCCGGTCTCCC", "DNA 2": "TGGTGGCTACGACGGGATT"}, "B21": {"name": "UGGCGGU (DNA:RNA)", "RNA": "B14 RNA with C25U, A26G, C30G", "DNA 1": "CAATCTGAATTCCGGTCTCCC", "DNA 2": "TGGTGGCTACGACGGGATT"}, "B22": {"name": "ACUAAUG (DNA:RNA)", "RNA": "B1 RNA with U25A, A27U, G28A, U29A, A30U, A31G", "DNA 1": "CAATCTGAATTCCGGTCTCCC", "DNA 2": "TGGTGGCTACGACGGGATT"}, "B23": {"name": "GCGAAGA (DNA:RNA)", "RNA": "B1 RNA with U25G, A27G, G28A, U29A, A30G", "DNA 1": "CAATCTGAATTCCGGTCTCCC", "DNA 2": "TGGTGGCTACGACGGGATT"}, "B24": {"name": "UGGGGCG (DNA:RNA)", "RNA": "B14 RNA with C25U, A26G, C28G, U31G", "DNA 1": "CAATCTGAATTCCGGTCTCCC", "DNA 2": "TGGTGGCTACGACGGGATT"}, "B25": {"name": "UGCCCCG (DNA:RNA)", "RNA": "B14 RNA with C25U, A26G, G27C, G29C, U31G", "DNA 1": "CAATCTGAATTCCGGTCTCCC", "DNA 2": "TGGTGGCTACGACGGGATT"}, "B26": {"name": "GGAACGC (DNA:RNA)", "RNA": "B1 RNA with U25G, C26G, G28A, U29C, A30G, A31C", "DNA 1": "CAATCTGAATTCCGGTCTCCC", "DNA 2": "TGGTGGCTACGACGGGATT"}, "B27": {"name": "AACGUUG (DNA:RNA)", "RNA": "B1 RNA with U25A, C26A, A27C, A30U, A31G", "DNA 1": "CAATCTGAATTCCGGTCTCCC", "DNA 2": "TGGTGGCTACGACGGGATT"}, "B28": {"name": "UACAGCA (DNA:RNA)", "RNA": "B14 RNA with C25U, G27C, C28A, U31A", "DNA 1": "CAATCTGAATTCCGGTCTCCC", "DNA 2": "TGGTGGCTACGACGGGATT"}, "B29": {"name": "AGAGGAC (DNA:RNA)", "RNA": "B1 RNA with U25A, C26G, U29G, A31C", "DNA 1": "CAATCTGAATTCCGGTCTCCC", "DNA 2": "TGGTGGCTACGACGGGATT"}, "B30": {"name": "CAACUGC (DNA:RNA)", "RNA": "B14 RNA with G27A, G29U, C30G, U31C", "DNA 1": "CAATCTGAATTCCGGTCTCCC", "DNA 2": "TGGTGGCTACGACGGGATT"}, "B31": {"name": "UGUCGCA (DNA:RNA)", "RNA": "B14 RNA with C25U, A26G, G27U, U31A", "DNA 1": "CAATCTGAATTCCGGTCTCCC", "DNA 2": "TGGTGGCTACGACGGGATT"}},
  "note": "Substitutions are numbered along the chain they refer to; changes in the protein carry UniProt numbers. Some of the results follow.",
  "data": [
    {"target": "T1, RBFOX1 RRM RbFoxmut (Fox-RRM*) (Homo sapiens, UniProt Q9NWB1 109-208, R118D;E147R;N151S;E152T)", "T1 sequence": "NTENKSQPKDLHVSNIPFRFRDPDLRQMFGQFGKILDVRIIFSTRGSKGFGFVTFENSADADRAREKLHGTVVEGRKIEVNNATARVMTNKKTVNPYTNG", "experiment": "EMSA; HiTS-Eq, 1 nM pool, 10 min; buffer printed only for the single-RNA assays: 10 mM Tris pH 7.5, 150 mM NaCl, 3.4 mM EDTA, 0.001% NP-40, 30 C", "details": "tags: His6 N-terminal (pET28a); label: 5' 32P", "summary_of_the_method": "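These values rest on relative association constants, computed from read-count changes of each RNA species versus the control reaction and normalised to the cognate motif. Reads came from free RNA recovered by 8% native PAGE after purified RbFox RRM (wild type or mutant) at increasing concentrations was equilibrated for 10 min in 50 µL with 1 nM of a 5′-radiolabelled pool with 7 randomized nucleotides and DNA-annealed flanks.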", "values": [
      {"binder": "B1", "binding signal": "0.126 KA relative to UGCAUGU"},
      {"binder": "B2", "binding signal": "0.098 KA relative to UGCAUGU"},
      {"binder": "B3", "binding signal": "0.0717 KA relative to UGCAUGU"},
      {"binder": "B4", "binding signal": "0.094 KA relative to UGCAUGU"},
      {"binder": "B5", "binding signal": "0.0952 KA relative to UGCAUGU"},
      {"binder": "B6", "binding signal": "0.0905 KA relative to UGCAUGU"},
      {"binder": "B7", "binding signal": "0.0781 KA relative to UGCAUGU"},
      {"binder": "B8", "binding signal": "0.0788 KA relative to UGCAUGU"},
      {"binder": "B9", "binding signal": "0.947 KA relative to UGCAUGU"},
      {"binder": "B10", "binding signal": "0.107 KA relative to UGCAUGU"},
      {"binder": "B11", "binding signal": "0.0585 KA relative to UGCAUGU"},
      {"binder": "B12", "binding signal": "0.112 KA relative to UGCAUGU"},
      {"binder": "B13", "binding signal": "0.0715 KA relative to UGCAUGU"},
      {"binder": "B14", "binding signal": "0.104 KA relative to UGCAUGU"},
      {"binder": "B15", "binding signal": "0.0762 KA relative to UGCAUGU"},
      {"binder": "B16", "binding signal": "0.107 KA relative to UGCAUGU"},
      {"binder": "B17", "binding signal": "0.0793 KA relative to UGCAUGU"},
      {"binder": "B18", "binding signal": "0.0905 KA relative to UGCAUGU"},
      {"binder": "B19", "binding signal": "0.257 KA relative to UGCAUGU"},
      {"binder": "B20", "binding signal": "0.093 KA relative to UGCAUGU"},
      {"binder": "B21", "binding signal": "0.109 KA relative to UGCAUGU"},
      {"binder": "B22", "binding signal": "0.123 KA relative to UGCAUGU"},
      {"binder": "B23", "binding signal": "0.0742 KA relative to UGCAUGU"},
      {"binder": "B24", "binding signal": "0.161 KA relative to UGCAUGU"},
      {"binder": "B25", "binding signal": "0.0794 KA relative to UGCAUGU"},
      {"binder": "B26", "binding signal": "0.182 KA relative to UGCAUGU"},
      {"binder": "B27", "binding signal": "0.129 KA relative to UGCAUGU"},
      {"binder": "B28", "binding signal": "0.0901 KA relative to UGCAUGU"},
      {"binder": "B29", "binding signal": "0.0764 KA relative to UGCAUGU"},
      {"binder": "B30", "binding signal": "0.0835 KA relative to UGCAUGU"},
      {"binder": "B31", "binding signal": "0.152 KA relative to UGCAUGU"}
    ]}
  ]
}
